Residue numbers refer to the chain shown, from its start. The list shows a part of the results.
T1: RBFOX1 RRM RbFoxmut (Fox-RRM*) (Homo sapiens, UniProt Q9NWB1 109-208, R118D;E147R;N151S;E152T)
T1 sequence: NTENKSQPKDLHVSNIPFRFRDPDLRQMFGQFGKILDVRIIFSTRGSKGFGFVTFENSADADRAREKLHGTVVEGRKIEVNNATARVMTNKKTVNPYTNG

B1: UGUCCGG (DNA:RNA)
RNA: GGGAGACCGGAAUUCAGAUUGUCCUGUCCGGUUAAAUCCCGUCGUAGCCACCA
DNA 1: CAATCTGAATTCCGGTCTCCC
DNA 2: TGGTGGCTACGACGGGATT
B2: GCAGAGC (DNA:RNA)
RNA: B1 RNA with U25G, G26C, U27A, C28G, C29A, G31C
DNA 1: CAATCTGAATTCCGGTCTCCC
DNA 2: TGGTGGCTACGACGGGATT
B3: CGCGUCA (DNA:RNA)
RNA: B1 RNA with U25C, U27C, C28G, C29U, G30C, G31A
DNA 1: CAATCTGAATTCCGGTCTCCC
DNA 2: TGGTGGCTACGACGGGATT
B4: UUUCGGU (DNA:RNA)
RNA: B1 RNA with G26U, C29G, G31U
DNA 1: CAATCTGAATTCCGGTCTCCC
DNA 2: TGGTGGCTACGACGGGATT
B5: ACGAUGA (DNA:RNA)
RNA: B1 RNA with U25A, G26C, U27G, C28A, C29U, G31A
DNA 1: CAATCTGAATTCCGGTCTCCC
DNA 2: TGGTGGCTACGACGGGATT
B6: GAAAUCG (DNA:RNA)
RNA: B1 RNA with U25G, G26A, U27A, C28A, C29U, G30C
DNA 1: CAATCTGAATTCCGGTCTCCC
DNA 2: TGGTGGCTACGACGGGATT
B7: AUGUGGC (DNA:RNA)
RNA: B1 RNA with U25A, G26U, U27G, C28U, C29G, G31C
DNA 1: CAATCTGAATTCCGGTCTCCC
DNA 2: TGGTGGCTACGACGGGATT
B8: CCUGACU (DNA:RNA)
RNA: B1 RNA with U25C, G26C, C28G, C29A, G30C, G31U
DNA 1: CAATCTGAATTCCGGTCTCCC
DNA 2: TGGTGGCTACGACGGGATT
B9: CGCACCU (DNA:RNA)
RNA: B1 RNA with U25C, U27C, C28A, G30C, G31U
DNA 1: CAATCTGAATTCCGGTCTCCC
DNA 2: TGGTGGCTACGACGGGATT
B10: AGUGGGU (DNA:RNA)
RNA: B1 RNA with U25A, C28G, C29G, G31U
DNA 1: CAATCTGAATTCCGGTCTCCC
DNA 2: TGGTGGCTACGACGGGATT
B11: GUUUGCG (DNA:RNA)
RNA: B1 RNA with U25G, G26U, C28U, C29G, G30C
DNA 1: CAATCTGAATTCCGGTCTCCC
DNA 2: TGGTGGCTACGACGGGATT
B12: CCAAGAC (DNA:RNA)
RNA: GGGAGACCGGAAUUCAGAUUGUCCCCAAGACUUAAAUCCCGUCGUAGCCACCA
DNA 1: CAATCTGAATTCCGGTCTCCC
DNA 2: TGGTGGCTACGACGGGATT
B13: CCACAAU (DNA:RNA)
RNA: B12 RNA with A28C, G29A, C31U
DNA 1: CAATCTGAATTCCGGTCTCCC
DNA 2: TGGTGGCTACGACGGGATT
B14: UCGUACG (DNA:RNA)
RNA: B1 RNA with G26C, U27G, C28U, C29A, G30C
DNA 1: CAATCTGAATTCCGGTCTCCC
DNA 2: TGGTGGCTACGACGGGATT
B15: AAAAGUU (DNA:RNA)
RNA: B12 RNA with C25A, C26A, A30U, C31U
DNA 1: CAATCTGAATTCCGGTCTCCC
DNA 2: TGGTGGCTACGACGGGATT
B16: GAAAACU (DNA:RNA)
RNA: B12 RNA with C25G, C26A, G29A, A30C, C31U
DNA 1: CAATCTGAATTCCGGTCTCCC
DNA 2: TGGTGGCTACGACGGGATT
B17: AAGUGGC (DNA:RNA)
RNA: B12 RNA with C25A, C26A, A27G, A28U, A30G
DNA 1: CAATCTGAATTCCGGTCTCCC
DNA 2: TGGTGGCTACGACGGGATT
B18: CGACCGU (DNA:RNA)
RNA: B1 RNA with U25C, U27A, G31U
DNA 1: CAATCTGAATTCCGGTCTCCC
DNA 2: TGGTGGCTACGACGGGATT
B19: ACGCGGU (DNA:RNA)
RNA: B12 RNA with C25A, A27G, A28C, A30G, C31U
DNA 1: CAATCTGAATTCCGGTCTCCC
DNA 2: TGGTGGCTACGACGGGATT
B20: GGAGGUC (DNA:RNA)
RNA: B12 RNA with C25G, C26G, A28G, A30U
DNA 1: CAATCTGAATTCCGGTCTCCC
DNA 2: TGGTGGCTACGACGGGATT
B21: UAGUGAA (DNA:RNA)
RNA: B12 RNA with C25U, C26A, A27G, A28U, C31A
DNA 1: CAATCTGAATTCCGGTCTCCC
DNA 2: TGGTGGCTACGACGGGATT
B22: ACCUAUA (DNA:RNA)
RNA: B12 RNA with C25A, A27C, A28U, G29A, A30U, C31A
DNA 1: CAATCTGAATTCCGGTCTCCC
DNA 2: TGGTGGCTACGACGGGATT
B23: GACAUUG (DNA:RNA)
RNA: B12 RNA with C25G, C26A, A27C, G29U, A30U, C31G
DNA 1: CAATCTGAATTCCGGTCTCCC
DNA 2: TGGTGGCTACGACGGGATT
B24: CCAUUCC (DNA:RNA)
RNA: B12 RNA with A28U, G29U, A30C
DNA 1: CAATCTGAATTCCGGTCTCCC
DNA 2: TGGTGGCTACGACGGGATT
B25: UUUCAAA (DNA:RNA)
RNA: B1 RNA with G26U, C29A, G30A, G31A
DNA 1: CAATCTGAATTCCGGTCTCCC
DNA 2: TGGTGGCTACGACGGGATT
B26: CGAUGCA (DNA:RNA)
RNA: B12 RNA with C26G, A28U, A30C, C31A
DNA 1: CAATCTGAATTCCGGTCTCCC
DNA 2: TGGTGGCTACGACGGGATT
B27: UGACCAU (DNA:RNA)
RNA: B1 RNA with U27A, G30A, G31U
DNA 1: CAATCTGAATTCCGGTCTCCC
DNA 2: TGGTGGCTACGACGGGATT
B28: UUGGCCC (DNA:RNA)
RNA: B1 RNA with G26U, U27G, C28G, G30C, G31C
DNA 1: CAATCTGAATTCCGGTCTCCC
DNA 2: TGGTGGCTACGACGGGATT
B29: UACAUCG (DNA:RNA)
RNA: B1 RNA with G26A, U27C, C28A, C29U, G30C
DNA 1: CAATCTGAATTCCGGTCTCCC
DNA 2: TGGTGGCTACGACGGGATT
B30: UAUUGUU (DNA:RNA)
RNA: B1 RNA with G26A, C28U, C29G, G30U, G31U
DNA 1: CAATCTGAATTCCGGTCTCCC
DNA 2: TGGTGGCTACGACGGGATT
B31: AAUGGCC (DNA:RNA)
RNA: B12 RNA with C25A, C26A, A27U, A28G, A30C
DNA 1: CAATCTGAATTCCGGTCTCCC
DNA 2: TGGTGGCTACGACGGGATT

Target: T1, RBFOX1 RRM RbFoxmut (Fox-RRM*)
Experiment: EMSA; HiTS-Eq, 1 nM pool, 10 min; buffer printed only for the single-RNA assays: 10 mM Tris pH 7.5, 150 mM NaCl, 3.4 mM EDTA, 0.001% NP-40, 30 C
Details: tags: His6 N-terminal (pET28a); label: 5' 32P
How it was run: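 These values rest on relative association constants, computed from read-count changes of each RNA species versus the control reaction and normalised to the cognate motif. Reads came from free RNA recovered by 8% native PAGE after purified RbFox RRM (wild type or mutant) at increasing concentrations was equilibrated for 10 min in 50 µL with 1 nM of a 5′-radiolabelled pool with 7 randomized nucleotides and DNA-annealed flanks.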

Binder | binding signal
B1 | 0.0882 KA relative to UGCAUGU
B2 | 0.0651 KA relative to UGCAUGU
B3 | 0.078 KA relative to UGCAUGU
B4 | 0.0835 KA relative to UGCAUGU
B5 | 0.0892 KA relative to UGCAUGU
B6 | 0.0585 KA relative to UGCAUGU
B7 | 0.159 KA relative to UGCAUGU
B8 | 0.0744 KA relative to UGCAUGU
B9 | 0.116 KA relative to UGCAUGU
B10 | 0.133 KA relative to UGCAUGU
B11 | 0.255 KA relative to UGCAUGU
B12 | 0.0848 KA relative to UGCAUGU
B13 | 0.0516 KA relative to UGCAUGU
B14 | 0.131 KA relative to UGCAUGU
B15 | 0.0927 KA relative to UGCAUGU
B16 | 0.0678 KA relative to UGCAUGU

Binder | binding signal
B17 | 0.134 KA relative to UGCAUGU
B18 | 0.0898 KA relative to UGCAUGU
B19 | 0.124 KA relative to UGCAUGU
B20 | 0.131 KA relative to UGCAUGU
B21 | 0.0948 KA relative to UGCAUGU
B22 | 0.132 KA relative to UGCAUGU
B23 | 0.103 KA relative to UGCAUGU
B24 | 0.0582 KA relative to UGCAUGU
B25 | 0.0706 KA relative to UGCAUGU
B26 | 0.158 KA relative to UGCAUGU
B27 | 0.0699 KA relative to UGCAUGU
B28 | 0.103 KA relative to UGCAUGU
B29 | 0.0513 KA relative to UGCAUGU
B30 | 0.156 KA relative to UGCAUGU
B31 | 0.19 KA relative to UGCAUGU

Source: paper PMC9911399, “Two distinct binding modes provide the RNA-binding protein RbFox with extraordinary sequence specificity”
